In the supplement of paper PMC6531468:
The list shows a part of the results. Values come from read counts of a selection and are noisy. Each score is taken over the longer molecules that contain the sequence shown.

Assays:
Assay in all cases: 6-mer SELEX enrichment z-score vs GST control; IMP3 is the RNA-binding protein IGF2BP3; higher = more enriched by binding
IMP3 KH1-4 = settings: construct: KH1-4 (164-579); SELEX round: R4
Method: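 SELEX-seq with GST-tagged IMP3 KH1-4 (Pro164-Lys579) and an N40 RNA pool, round 4. 6-mer z-score of sequence-tag enrichment normalised to the corresponding GST SELEX round; RNA k-mers written as DNA (T for U).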

IMP3 RRM1-2 = settings: construct: RRM1-2 (1-163); SELEX round: R2
Method: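 SELEX-seq with GST-tagged IMP3 RRM1-2 (Met1-Asn163) and an N40 RNA pool, round 2. 6-mer enrichment z-score normalised to GST SELEX. RNA written as DNA (T = U).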

IMP3 full-length = IMP3 full-length (UniProt O00425); settings: construct: FL IMP3 (1-579); SELEX round: R4
Method: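 SELEX-seq with GST-tagged full-length IMP3 and an N40 RNA pool, round 4. Each 6-mer is scored as an enrichment z-score of sequence tags containing it, normalised to the matching GST SELEX round. RNA written as DNA (T = U).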

IMP3 KH3-4 = settings: construct: KH3-4 (377-579); SELEX round: R4
Method: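 SELEX-seq with GST-tagged IMP3 KH3-4 (Pro377-Lys579) and an N40 RNA pool, round 4. 6-mer z-score of sequence-tag enrichment normalised to the corresponding GST SELEX round; RNA k-mers written as DNA (T for U).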

IMP3 KH1-2 = settings: construct: KH1-2 (164-376); SELEX round: R4
Method: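 SELEX-seq with GST-tagged IMP3 KH1-2 (Pro164-Phe376) and an N40 RNA pool, round 4 (stringent 300/600 mM KCl washes). 6-mer z-score of sequence-tag enrichment normalised to the corresponding GST SELEX round; RNA k-mers written as DNA (T for U).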

Sequence of IMP3 KH1-2 (chain, as listed by the source): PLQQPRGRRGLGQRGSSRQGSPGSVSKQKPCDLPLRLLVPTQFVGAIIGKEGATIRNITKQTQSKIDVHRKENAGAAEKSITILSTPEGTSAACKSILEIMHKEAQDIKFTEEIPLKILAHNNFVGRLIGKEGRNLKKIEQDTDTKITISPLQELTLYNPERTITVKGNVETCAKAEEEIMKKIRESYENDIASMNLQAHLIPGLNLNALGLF
Sequence of IMP3 RRM1-2 (chain, as listed by the source): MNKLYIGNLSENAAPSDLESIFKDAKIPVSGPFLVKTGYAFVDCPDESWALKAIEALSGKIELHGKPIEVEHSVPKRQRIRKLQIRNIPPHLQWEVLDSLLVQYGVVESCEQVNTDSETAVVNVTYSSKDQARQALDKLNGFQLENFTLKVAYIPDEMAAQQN
Sequence of IMP3 KH1-4 (chain, as listed by the source): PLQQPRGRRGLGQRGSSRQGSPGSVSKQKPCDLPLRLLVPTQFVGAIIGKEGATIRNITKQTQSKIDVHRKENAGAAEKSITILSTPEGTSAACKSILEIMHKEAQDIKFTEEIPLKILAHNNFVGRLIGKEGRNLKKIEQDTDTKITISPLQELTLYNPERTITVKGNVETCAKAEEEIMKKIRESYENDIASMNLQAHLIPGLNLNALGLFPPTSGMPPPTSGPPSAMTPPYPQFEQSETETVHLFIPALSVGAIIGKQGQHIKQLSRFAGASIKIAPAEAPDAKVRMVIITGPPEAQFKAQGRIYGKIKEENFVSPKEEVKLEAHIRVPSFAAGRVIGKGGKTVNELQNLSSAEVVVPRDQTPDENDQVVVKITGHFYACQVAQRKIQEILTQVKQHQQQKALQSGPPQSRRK
Sequence of UniProt O00425 (O00425 whole entry): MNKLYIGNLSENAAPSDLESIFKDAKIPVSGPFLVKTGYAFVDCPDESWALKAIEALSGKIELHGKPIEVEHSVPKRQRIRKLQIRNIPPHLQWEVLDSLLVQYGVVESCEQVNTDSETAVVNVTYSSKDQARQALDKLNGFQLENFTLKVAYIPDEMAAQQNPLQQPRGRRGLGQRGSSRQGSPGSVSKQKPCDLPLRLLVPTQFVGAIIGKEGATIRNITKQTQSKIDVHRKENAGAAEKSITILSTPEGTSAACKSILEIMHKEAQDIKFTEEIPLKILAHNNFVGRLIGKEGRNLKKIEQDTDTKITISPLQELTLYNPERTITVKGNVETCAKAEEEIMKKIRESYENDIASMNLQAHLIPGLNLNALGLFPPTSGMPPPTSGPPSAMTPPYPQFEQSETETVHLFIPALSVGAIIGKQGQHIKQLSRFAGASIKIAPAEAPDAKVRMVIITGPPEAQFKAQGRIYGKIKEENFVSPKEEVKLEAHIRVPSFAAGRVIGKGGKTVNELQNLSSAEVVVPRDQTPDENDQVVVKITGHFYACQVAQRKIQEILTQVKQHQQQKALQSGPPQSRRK
Sequence of IMP3 KH3-4 (chain, as listed by the source): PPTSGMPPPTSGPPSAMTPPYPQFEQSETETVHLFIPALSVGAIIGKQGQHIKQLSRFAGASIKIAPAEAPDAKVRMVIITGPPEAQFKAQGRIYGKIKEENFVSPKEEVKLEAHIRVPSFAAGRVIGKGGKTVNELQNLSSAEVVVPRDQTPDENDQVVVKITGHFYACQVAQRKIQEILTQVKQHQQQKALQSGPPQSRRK

Row | Sequence | 6-mer SELEX enrichment z-score (IMP3 KH1-4) | 6-mer SELEX enrichment z-score (IMP3 RRM1-2) | 6-mer SELEX enrichment z-score (IMP3 full-length) | 6-mer SELEX enrichment z-score (IMP3 KH3-4) | 6-mer SELEX enrichment z-score (IMP3 KH1-2)
1 | TTGACA | 0.071 | -0.255 | -0.144 | 0.119 | 
2 | AGAGAA | 0.991 | -1.24 | -0.426 | 1.52 | 
3 | CAACGT | -1.22 | -0.324 | -0.409 | -1.28 | 
4 | CAAACT | -0.218 | -0.126 | -0.615 | -0.477 | 
5 | GGTGGT | 0.346 | 0.472 | 0.41 | 0.518 | 
6 | AGCTTA | -0.565 | -0.066 | -0.472 | -0.343 | 
7 | ATAATT | 1.86 | -0.014 | 0.442 | 2.91 | 
8 | TGCCTC | -0.642 | 0.032 | -0.323 | -0.71 | 
9 | GCGAGT | -1.1 | -0.099 | -0.335 | -0.833 | 
10 | GCCATG | 0.315 | -0.074 | 0.33 | 0.065 | 
11 | AGGGGC | 1.09 | 0.155 | 0.724 | 1.44 | 
12 | GGTGCT | -0.266 | 0.337 | 0.083 | -0.007 | 
13 | CTGTGC | 0.008 | -0.009 | -0.053 | -0.279 | 
14 | GCATCG | 0.871 | 0.57 | 1.82 | 0.083 | 
15 | AGTGAG | -0.007 | -0.391 | -0.167 | 0.084 | 
16 | AGCAAG | -0.175 | 0.094 | 0.317 | -0.108 | 
17 | TTACGG | 0.665 | -0.001 | 0.291 | 0.658 | 
18 | TCTGGC | -0.059 | 0.404 | 0.378 | -0.016 | 
19 | GAGCCT | -1.36 | -0.537 | -0.663 | -1.2 | 
20 | TTATAC | 1.02 | 0.121 | 0.092 | 1.33 | 
21 | AGCTGG | -0.152 | 0.098 | 0.138 | -0.097 | 
22 | GTCCCG | -1.01 | -0.281 | -0.067 | -0.985 | 
23 | AGCAGA | -0.244 | 0.299 | 0.339 | -0.153 | 

Row | Sequence | 6-mer SELEX enrichment z-score (IMP3 KH1-4) | 6-mer SELEX enrichment z-score (IMP3 RRM1-2) | 6-mer SELEX enrichment z-score (IMP3 full-length) | 6-mer SELEX enrichment z-score (IMP3 KH3-4) | 6-mer SELEX enrichment z-score (IMP3 KH1-2)
24 | TGAAGG | 0.462 | -0.384 | -0.02 | 0.712 | 
25 | GACTCC | -0.664 | -0.559 | -0.763 | -1 | 
26 | TTGTCG | -0.013 | 0.419 | 0.287 | 0.105 | 
27 | AGTGTC | -0.613 | 0.262 | -0.015 | -0.435 | 
28 | TACTTC | 0.394 | 0.329 | 0.035 | 0.272 | 
29 | CCGATC | -1.27 | -0.186 | -0.444 | -1.44 | 
30 | TTAATC | 0.782 | 0.246 | 0.11 | 0.929 | 
31 | TATCCA | -0.819 | 0.006 | -0.798 | -0.941 | 
32 | CCATGG | 0.147 | 0.237 | 0.227 | -0.026 | 
33 | GTAGAA | -0.804 | -0.559 | -0.903 | -0.488 | 
34 | GATGCG | -0.826 | -0.217 | -0.546 | -0.494 | 
35 | CTATCT | 0.201 | 0.352 | -0.062 | 0.162 | 
36 | ACATAC | 2 | 2.1 | 2.19 | 1.6 | 
37 | ACGCAA | -0.127 | 0.083 | 0.179 | -0.165 | 
38 | CTGACA | 0.083 | -0.133 | -0.082 | -0.304 | 
39 | CCCGAA | -2.55 | -1.89 | -2.13 | -2.7 | 
40 | TACCCA | -1.7 | -0.329 | -1.29 | -2.08 | 
41 | CAAAAG | -1.74 | -1.34 | -1.67 | -1.45 | 
42 | ACCACG | -0.712 | 0.511 | -0.194 | -1.25 | 
43 | ATGCCC | -1.39 | -0.611 | -1.32 | -1.73 | 
44 | GGGTGC | -0.066 | 0.241 | 0.257 | 0.153 | 
45 | CTAAAT | 0.334 | -0.587 | -0.656 | 0.602 | 
46 | GTCCAT | 0.593 | 0.285 | 0.601 | 0.344 | 

Row | Sequence | 6-mer SELEX enrichment z-score (IMP3 KH1-4) | 6-mer SELEX enrichment z-score (IMP3 RRM1-2) | 6-mer SELEX enrichment z-score (IMP3 full-length) | 6-mer SELEX enrichment z-score (IMP3 KH3-4) | 6-mer SELEX enrichment z-score (IMP3 KH1-2)
47 | TGTAAG | 0.278 | -0.165 | -0.248 | 0.491 | 
48 | ACGTGG | -0.427 | -0.256 | -0.257 | -0.424 | 
49 | GTAAAT | 0.302 | -0.646 | -0.431 | 0.714 | 
50 | GCGCAC | 0.248 | 0.354 | 1.43 | -0.139 | 
51 | TACCCC | -0.445 | -0.476 | -0.481 | -1.01 | 
52 | AAGTTC | -0.105 | -0.002 | -0.201 | -0.017 | 
53 | CTCCTC | 0.092 | 0.232 | -0.136 | -0.404 | 
54 | CCAATC | -0.812 | 0.987 | -0.218 | -1.39 | 
55 | CCCACA | -0.964 | 0.397 | -0.401 | -1.9 | 
56 | GGCCGT | 0.017 | -0.001 | 0.631 | 0.178 | 
57 | TCGAAC | -1.93 | -0.501 | -1.11 | -1.9 | 
58 | GCGTCC | -0.934 | 0.224 | 0.571 | -0.762 | 
59 | CCCCCT | 0.018 | -0.556 | -0.768 | -0.621 | 
60 | ACTTTT | 1.01 | 0.205 | 0.089 | 1.17 | 
61 | TTGGTG | -0.079 | 0.522 | 0.143 | 0.131 | 
62 | CCGACC | -2.17 | -1.15 |  |  | -1.82
63 | TGGAGA | 0.444 | -0.449 | -0.185 | 0.389 | 
64 | GCGCGC | -0.128 | 0.349 | 0.613 | -0.109 | 
65 | AGCAGC | 0.194 | 0.623 |  |  | 0.177
66 | CTTACA | 1.07 | 0.636 |  |  | 1.3
67 | CAGGCG | -0.009 | 0.465 |  |  | 0.102
